Results reported in PubChem BioAssay AID1346428 (National Center for Advancing Translational Sciences (NCATS), 2018).
In all, about 48,000 compounds went through this assay and about 1,200 (2.5%) were called active. Roughly 2% stayed inconclusive and do not appear here.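 The calls were made as follows: active = activation of at least 60% and not above a set upper limit (about 1 call in 100 departs from these limits); inconclusive = activation of 40% to 60%, or above that upper limit; inactive = activation under 40%.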 The list shows a part of the results.

Target: Probable G-protein coupled receptor 32 (Homo sapiens) (UniProt O75388)
Test: qHTS for Agonists of Human Resolvin D1 Receptor DRV1; also: 0% is about no effect
Settings: CHO-K1 GPR32 beta-arrestin PathHunter luminescence, 90 min; at 76.9 µM; stronger effect = higher value; zero percent set by DMSO-only wells
Outline: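 Engineered CHO-K1 line co-expressing GPR32-ProLink and EA-beta-arrestin. Compound treatment lasted 90 min at 37 °C. Luminescence was recorded after 1 h with substrate at ambient temperature, relative to DMSO basal wells.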

Chain of UniProt O75388 (O75388 whole entry, looked up): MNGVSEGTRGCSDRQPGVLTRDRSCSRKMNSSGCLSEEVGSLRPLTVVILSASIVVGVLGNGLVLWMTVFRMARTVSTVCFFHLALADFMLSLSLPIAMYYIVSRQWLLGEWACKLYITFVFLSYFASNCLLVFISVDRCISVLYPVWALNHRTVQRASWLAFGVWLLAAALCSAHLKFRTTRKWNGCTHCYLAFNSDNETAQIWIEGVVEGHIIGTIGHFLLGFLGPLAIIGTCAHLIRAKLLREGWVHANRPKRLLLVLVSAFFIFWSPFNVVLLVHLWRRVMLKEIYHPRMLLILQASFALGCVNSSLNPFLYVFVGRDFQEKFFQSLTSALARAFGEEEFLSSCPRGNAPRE

activation, inactive:
Cn1c2ccccc2c2c(C(=O)N3CCN(c4cccc(Cl)c4)CC3)cn(C3CCCCC3)c(=O)c21 -18.6%
O=C(NCc1ccc2c(c1)CCN2C(=O)c1ccncc1)c1ccccc1Cl -8.68%
CCSc1ncc(Cl)c(C(=O)Nc2ccc(S(=O)(=O)Nc3ncccn3)cc2)n1 10.6%
COc1cccc(CNC(=O)CCCn2ncn3c(cc4occc43)c2=O)c1OC -4.98%
COC(=O)CN1C(=O)CSc2ccc(S(=O)(=O)Nc3cccc(C)c3)cc21 -0.571%
CCCOC(C(=O)OC1CCN(C)CC1)(c1ccccc1)c1ccccc1 -9.18%
Cc1cccc(C(=O)Nc2nc3nc(-c4ccccc4)cc(=O)n3[nH]2)c1 20.3%
COc1ccc(-n2c(=O)c3c4c(sc3n(Cc3ccc(C)cc3C)c2=O)CCC4)c(OC)c1 -12%
CCc1nc2ccccc2n2c(-c3ccccc3)c3c(=O)n(C)c(=O)n(C)c3c12 -9.49%
CCc1c(C)nc2nncn2c1Nc1ccc(Cl)cc1 0.535%
CCOc1ccccc1NS(=O)(=O)c1ccc2c(c1)CC(C)N2C(=O)C1CC1 (centres undefined) 16.1%
COc1ccc(OC)c(CNC(=O)Cn2ncc3c([nH]c4ccc(C)cc43)c2=O)c1 -10.6%
CCC(C(=O)Nc1ccc(C(C)=O)cc1)n1cnc2nc3c(cc2c1=O)CCCC3 (centres undefined) -12.3%
COc1cc(C(CC(=O)NCc2ccccc2)N2Cc3ccccc3C2=O)cc(OC)c1OC (centres undefined) -3.39%
Cc1cc(C)cc(NC(=O)CCc2nnc3n(C)c(=O)c4sccc4n23)c1 8.08%
Cc1cc(C)n2nc(CNC(=O)c3ccccc3Cl)nc2n1 7.53%
CC1=C(C(=O)Nc2cc(Cl)ccc2C)C2(CCCCC2)OC1=O -25.6%
COc1ccc2c(C)c(CCC(=O)NCc3ccc(C)cc3)c(=O)oc2c1 42.5%
CCSc1ccc(C(=O)Nc2ccc(-c3nc4ccc(C)cc4s3)cc2)cc1 25.7%
COC(=O)c1c(SC)nc2ccccc2c1OCc1ccccc1Cl -19.3%
CCOc1ccc(NC(=O)C2CCN(c3nc4ccccc4[nH]3)CC2)cc1 -21.8%
CC(C)(C)OC(=O)N1CCC(c2c(C(=O)NCCc3ccsc3)cnn2-c2ccccc2Cl)CC1 -18.4%
CCOc1ccc(N2C(=O)CS(=O)(=O)C23C(=O)N(Cc2cccc(Cl)c2)c2ccccc23)cc1 (centres undefined) -14%
COC(=O)C1=C(C)N=C2SCCC(=O)N2C1c1ccc(OCc2ccccc2)c(OC)c1 (centres undefined) -3.64%
CCOC(=O)c1c(C)[nH]c(C)c1S(=O)(=O)N(C)CC(=O)N1CCN(c2ccc(Cl)cc2)CC1 45.8%
Cc1ccc(-c2c(C(=O)N3CCN(c4cccc(C)c4)C(C)C3)oc(=O)c3ccccc23)cc1 (centres undefined) -22.7%
COc1cc(OC)cc(C(=O)Nc2cc(-c3nc4ccccc4[nH]3)ccc2C)c1 -5.77%
CCOC(=O)C1CCCN(c2nc3c(S(=O)(=O)c4ccc(Br)cc4)nnn3c3ccsc23)C1 (centres undefined) -29.8%
O=C(/C=C/c1ccco1)Nc1ccc(F)cc1 -15.4%
COC(=O)c1c(SC)nc2ccccc2c1OCc1ccc(Br)cc1 -3.87%
OC[C@H]1O[C@@H](O[C@@H]2[C@@H](CO)O[C@](O)(CO)[C@H]2O)[C@H](O)[C@@H](O)[C@H]1O -4.21%
CCOC(=O)CN1CCCC1=O -5.59%
CCn1nc(-c2ccccc2)c(-c2ccccc2)c(C(=O)Nc2ccc(S(N)(=O)=O)cc2)c1=O -9.79%
COc1ccc(C(=O)Nc2ccc(-c3nnc4n3CCCCC4)cc2)cc1 45.5%
COc1cccc2c1Oc1ncccc1N(C(=O)CCC(=O)NCCC(C)C)C2 -8.02%
O=c1c2sccc2n(Cc2cc(=O)n3ccccc3n2)c(=O)n1-c1cc(F)ccc1F -11.1%
Cc1ccccc1CNC(=O)c1nn(-c2ccccc2F)nc1CO -4.25%
O=S(=O)(c1ccc(Cl)cc1)c1nc(-c2ccccc2Br)oc1NCc1ccccc1 -8.64%
Cc1cc(C)c(NC(=O)CSc2nc3ccccc3c3nc(CCn4cncc4C)nn23)c(C)c1 14.8%
CCN(CC)CCCNc1cc(-c2ccccc2)nc(C)n1 -8.48%
Cc1ccc(C)c(OCCn2c(C3CC(=O)N(Cc4ccc(F)cc4)C3)nc3ccccc32)c1 (centres undefined) -18.3%
CCN1CCN(C(=O)c2ccc3c(c2)N(Cc2cccc(Cl)c2)C(=O)c2ccccc2S3=O)CC1 (centres undefined) -22.2%
COc1ccc(CCNC(=O)CSc2nc3nc(C)c(Cc4ccc(C)cc4)c(C)n3n2)cc1OC -8.87%
COc1ccc(-n2cc(C(=O)N(CCN(C)C)Cc3ccccc3)c3ccccc3c2=O)cc1 -11.1%
CCOc1ccc2nc(N3CCN(C(=O)c4ccc(S(=O)(=O)CC)cc4)CC3)sc2c1 4.28%
COc1ccc(Cn2c(=O)[nH]c3cc(C(=O)NCCC(C)C)ccc3c2=O)cc1 2.75%
COc1ccc(CNC(=O)CS(=O)Cc2nc(-c3ccc(OC)c(OC)c3)oc2C)cc1 (centres undefined) -1.46%
CCn1c(C)c(C)c2cc(C(=O)NCCCN3CCCCC3C)ccc21 (centres undefined) 2.13%
Cc1ccc(N(CC(=O)Nc2cccc(Cl)c2C)S(=O)(=O)c2c(C)noc2C)cc1 -0.247%
COc1cc(C(=O)N(Cc2ccc(F)cc2)Cc2ccco2)cc(OC)c1OC -15.1%
COc1cc(-c2nc(-c3ccc4c(c3)[nH]c(=O)n4C)no2)cc(OC)c1OC -2.27%

activation, active:
O=C(NCCc1csc(-c2ccc(F)cc2)n1)c1ccco1 109%
Cc1ccc(/C=C/C(=O)Nc2nc(-c3cccs3)ns2)cc1 70.4%
C=C(CC)C(=O)c1ccc(OCC(=O)O)c(Cl)c1Cl 89.6%
